Screen size: about 310,000 compounds; about 14,000 (4.5%) showed an effect of 50% or more. Effects have a minus sign here. This is one part of the list.
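Also: peak tail current of the secondary pulse compared with the same well before compound.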

Chain of human ether-à-go-go-related gene (hERG) potassium channel (Q12809 whole entry, looked up): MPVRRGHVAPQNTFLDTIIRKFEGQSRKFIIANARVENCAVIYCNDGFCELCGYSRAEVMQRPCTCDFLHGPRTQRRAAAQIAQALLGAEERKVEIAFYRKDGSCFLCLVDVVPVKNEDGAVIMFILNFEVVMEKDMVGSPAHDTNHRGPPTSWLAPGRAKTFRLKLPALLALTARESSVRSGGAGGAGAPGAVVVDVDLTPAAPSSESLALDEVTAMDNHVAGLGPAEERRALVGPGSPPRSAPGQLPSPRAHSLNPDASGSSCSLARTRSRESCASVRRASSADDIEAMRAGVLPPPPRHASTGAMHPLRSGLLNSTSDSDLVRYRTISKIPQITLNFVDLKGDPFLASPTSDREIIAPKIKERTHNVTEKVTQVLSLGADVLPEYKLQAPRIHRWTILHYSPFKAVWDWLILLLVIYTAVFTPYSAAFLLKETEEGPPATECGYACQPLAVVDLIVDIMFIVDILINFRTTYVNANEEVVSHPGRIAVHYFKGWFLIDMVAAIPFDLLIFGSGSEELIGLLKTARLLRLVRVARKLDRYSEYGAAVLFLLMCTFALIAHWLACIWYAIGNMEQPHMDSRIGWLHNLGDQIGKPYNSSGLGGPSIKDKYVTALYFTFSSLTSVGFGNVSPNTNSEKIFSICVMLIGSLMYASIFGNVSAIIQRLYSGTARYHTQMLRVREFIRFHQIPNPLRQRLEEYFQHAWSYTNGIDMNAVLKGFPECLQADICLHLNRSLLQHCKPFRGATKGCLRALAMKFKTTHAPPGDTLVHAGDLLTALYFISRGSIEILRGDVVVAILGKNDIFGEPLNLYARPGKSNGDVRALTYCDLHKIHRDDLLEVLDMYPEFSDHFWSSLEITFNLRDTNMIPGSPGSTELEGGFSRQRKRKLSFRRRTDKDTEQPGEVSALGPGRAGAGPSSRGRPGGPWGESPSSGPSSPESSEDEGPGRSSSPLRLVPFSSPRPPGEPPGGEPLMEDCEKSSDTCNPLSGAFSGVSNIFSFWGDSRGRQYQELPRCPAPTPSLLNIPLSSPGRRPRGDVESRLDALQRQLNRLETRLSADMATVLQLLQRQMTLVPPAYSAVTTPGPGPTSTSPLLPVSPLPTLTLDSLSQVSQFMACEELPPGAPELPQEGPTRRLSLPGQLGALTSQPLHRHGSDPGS

The assay has as its target human ether-à-go-go-related gene (hERG) potassium channel (human, UniProt Q12809). Nature of the assay: primary screen, population patch clamp on CHO cells stably expressing hERG.
Take `O=C(/C=C/c1ccc(OC(F)F)cc1)Nc1cccc(S(=O)(=O)N2CCOCC2)c1`: the “hERG current change (%, negative = inhibition) at 10uM” value was 14.2%.
For the molecule `O=C(Nc1cc(C(F)(F)F)ccc1N1CCOCC1)c1ccco1`, the “hERG current change (%, negative = inhibition) at 10uM” value is 6.93%.
In the case of `Cc1ccc(CNC(=O)c2cn(C)c3ccc(S(=O)(=O)N4CCOCC4)cc3c2=O)cc1`, the “hERG current change (%, negative = inhibition) at 10uM” value is -9.75%.
With `CC(=O)N1CCN(c2ccccc2NC(=O)COc2ccc(Br)cc2)CC1`, the “hERG current change (%, negative = inhibition) at 10uM” value is -9.2%.
Take `COc1ccc(/C=N\NS(=O)(=O)c2ccc(C)cc2)cc1COc1ccccc1[N+](=O)[O-]`: the “hERG current change (%, negative = inhibition) at 10uM” value worked out at 3.23%.
To `CCN(CC)S(=O)(=O)c1ccc(N2CCOCC2)c(NS(=O)(=O)c2ccc(C)c(C)c2)c1` belongs -7.03%; to `COc1ccc(NC(=S)NC(NC(=O)c2cccc(C)c2)C(Cl)(Cl)Cl)c([N+](=O)[O-])c1` (stereo not shown), 3.92%.
The same measure for `Cc1c(Cl)cccc1NC(=O)COC(=O)Cc1ccsc1`: 2.74%; for `C[C@]12CCC(=O)C=C1C=C[C@@H]1[C@@H]2CC[C@@]2(C)[C@H]1CC[C@@]21CCC(=O)O1`: -31.8%.
As to `COc1ccc(Cl)cc1NC(=O)COc1ccc2c(c1)OCO2`, the “hERG current change (%, negative = inhibition) at 10uM” value is 12.7%.
As to `CC1(C)C(=O)N(c2ccccc2Cl)C(=O)c2ccccc21`, the “hERG current change (%, negative = inhibition) at 10uM” value was -18.2%.
To `NNC(=O)C1CC1(c1ccccc1)c1ccccc1` (stereo not shown) belongs 5.98%; to `CCCC[n+]1ccn(-c2nc3ccccc3nc2[N-]S(=O)(=O)c2ccc(Br)cc2)c1`, -7.79%.
Regarding `CC1=NN(c2ccc(C(=O)O)cc2)C(=O)/C1=C/c1ccc(-c2ccccc2F)o1`, the “hERG current change (%, negative = inhibition) at 10uM” value is given as 19.3%.
Regarding `CC(=O)Nc1ccc(NS(=O)(=O)Cc2ccccc2)cc1`, the “hERG current change (%, negative = inhibition) at 10uM” value is recorded as 13.3%.
Take `Cc1ccc(SCc2nnc(NC(=O)c3ccccc3)s2)cc1`: the “hERG current change (%, negative = inhibition) at 10uM” value is listed as -6.11%.
With `O=C(Nc1cc([N+](=O)[O-])ccc1O)c1cccc(C(=O)Nc2cc([N+](=O)[O-])ccc2O)c1`, the “hERG current change (%, negative = inhibition) at 10uM” value was 19.1%.
In the case of `O=C(NCc1cccs1)C(=O)NCC(c1ccco1)N1CCN(c2ccccc2)CC1` (stereo not shown), the “hERG current change (%, negative = inhibition) at 10uM” value is listed as -1.97%.
As for `COc1ccc(OC)c(N(/C(N)=N/c2nc(C)cc(C)n2)S(=O)(=O)c2ccc(NC(C)=O)cc2)c1`, the “hERG current change (%, negative = inhibition) at 10uM” value turned out to be 7.96%.
Take `COc1ccc(NC(=O)CNC(=O)C23CC4CC(CC(C4)C2)C3)c(OC)c1`: the “hERG current change (%, negative = inhibition) at 10uM” value is recorded as -13.5%.
`Cc1ccc(C2=NCCn3c2c2ccc([N+](=O)[O-])cc2[n+]3[O-])cc1`: the “hERG current change (%, negative = inhibition) at 10uM” value is reported as -7.51%.
As for `CC(O)[C@H]1CNC(=O)C(=O)N1CCC12CC3CC(CC(C3)C1)C2` (stereo partly shown), the “hERG current change (%, negative = inhibition) at 10uM” value is recorded as 7.45%.
Turning to `CC1(C)OC(=CC=Nc2ccc(Cl)cc2)OC1(C)C`, the “hERG current change (%, negative = inhibition) at 10uM” value came out at 2.47%.
As to `CC(=O)NC1=NN(c2ccccc2)C(=O)C1`, the “hERG current change (%, negative = inhibition) at 10uM” value amounted to 17.3%.
As to `Cc1ccc(CN(C)C(=O)C2CCC(=O)N(CC3CCCCC3)C2)o1` (stereo not shown), the “hERG current change (%, negative = inhibition) at 10uM” value is reported as 10.3%.
To `Cc1cc(NC(=O)COc2ccc(Cl)cc2Cl)n(CCC#N)n1` belongs -19%; to `CC(NC(=O)c1cc(-c2ccccn2)nc2ccc(Cl)cc12)C1CCCO1` (stereo not shown), 3.95%; to `Nc1ccccc1C#CC(=O)c1ccccc1`, 17.4%.
Take `CCOCCOC(=O)C(C)Oc1ccc(Oc2ncc(Cl)cc2Cl)cc1` (stereo not shown): the “hERG current change (%, negative = inhibition) at 10uM” value came out at 5.99%.
Take `O=C(c1cc([N+](=O)[O-])ccc1N1CCCC1)N1CCCCC1`: the “hERG current change (%, negative = inhibition) at 10uM” value is on record as 9.96%.
On to `O=C(/C=C/c1cccs1)NCc1ccccc1`, for which the “hERG current change (%, negative = inhibition) at 10uM” value is recorded as -2.08%.
In the case of `CCCCC1C(C#N)=C(C)NC2=C1C(=O)CC(C)(C)C2` (stereo not shown), the “hERG current change (%, negative = inhibition) at 10uM” value is reported as -9.68%.
For the molecule `Cc1ccc(NC(=S)NNS(=O)(=O)c2ccc3ccccc3c2)cc1Cl`, the “hERG current change (%, negative = inhibition) at 10uM” value amounted to 5.28%.
`COc1ccc(-c2nc(-c3ccccc3)c(-c3cccs3)[nH]2)cc1OC`: the “hERG current change (%, negative = inhibition) at 10uM” value came out at 8.81%.
As to `CCC(C)n1c(SCC(=O)NC2CCS(=O)(=O)C2)nc2ccccc2c1=O` (stereo not shown), the “hERG current change (%, negative = inhibition) at 10uM” value is recorded as -13.8%.
The same measure for `C=CCSc1nncn1/N=C/c1ccc(OC)cc1`: -32.1%; for `CC(=O)Nc1ccc(N/C(N)=N/c2nc(C)cc(C)n2)cc1`: 14%.
Turning to `COc1ccc(Nc2nc(N)c(C(=O)c3ccc(F)cc3)s2)cc1`, the “hERG current change (%, negative = inhibition) at 10uM” value came to 25.9%.
Take `c1ccc(C2CCC(N3CCN(c4ccccc4)CC3)CC2)cc1` (stereo not shown): the “hERG current change (%, negative = inhibition) at 10uM” value is given as -25.6%.
The same measure for `COc1ccc(NC(=O)c2noc3c2CCCCC3)cc1`: -0.673%; for `CC(=O)c1cccc(NC(=O)CSc2nc(C3CC3)nc3ccccc23)c1`: -10%; for `CNC(=O)c1ccccc1S(=O)c1ccccc1COC(C)=O` (stereo not shown): 3.15%.
On to `Cc1ccc2nc(NC(=O)c3ccc(OCC4CCCO4)cc3)sc2c1` (stereo not shown), for which the “hERG current change (%, negative = inhibition) at 10uM” value is given as -3.89%.
For the molecule `COc1ccc(OC(=O)N2CCOCC2)cc1`, the “hERG current change (%, negative = inhibition) at 10uM” value is given as 0.314%.
Consider `Cc1c(CC(=O)N2C[C@H]3C[C@@H](C2)c2cccc(=O)n2C3)c(=O)oc2c(C)c(O)ccc12`, for which the “hERG current change (%, negative = inhibition) at 10uM” value was determined as 4.94%.
The same measure for `CCN(CC)CCNc1ccc(Cl)cc1[N+](=O)[O-].Cl`: -61.6%.
Turning to `O=C(NC1CCOCC1)C1CCC(=O)N(Cc2ccc(Cl)cc2)C1` (stereo not shown), the “hERG current change (%, negative = inhibition) at 10uM” value amounted to 6.46%.
The same measure for `COc1ccc(-n2nnnc2CNC(=O)C(=O)c2c[nH]c3ccccc23)cc1`: 6.27%; for `Nc1ccc2oc(-c3ccccc3Cl)cc(=O)c2c1O`: -9.02%.
With `Cc1ccc(S(=O)(=O)NN2C(=O)/C(=C/c3ccccn3)SC2=S)cc1`, the “hERG current change (%, negative = inhibition) at 10uM” value was -5.43%.
The same measure for `O=C(Nc1ccccc1F)c1cc(S(=O)(=O)N2CCOCC2)cs1`: 5.76%.
With `Cc1ccc(F)cc1CNC(=O)C1CCC(=O)N(CCc2ccccc2)C1` (stereo not shown), the “hERG current change (%, negative = inhibition) at 10uM” value is reported as -37.8%.
With `CC(=O)Nc1ccc(NC(=O)c2ccc(NS(=O)(=O)c3cccc4cccnc34)cc2)cc1`, the “hERG current change (%, negative = inhibition) at 10uM” value stood at 24.4%.
Regarding `Cc1nc(-c2ccc(C(=O)Nc3ccc(F)cc3)cc2)cs1`, the “hERG current change (%, negative = inhibition) at 10uM” value is -3.65%.
With `O=C(NCc1cccnc1)C(=O)NCC1OCCN1S(=O)(=O)c1ccc(Cl)cc1` (stereo not shown), the “hERG current change (%, negative = inhibition) at 10uM” value is -11.2%.
With `C=CCc1cc(C)ccc1OCCn1ccnc1.O=C(O)C(=O)O`, the “hERG current change (%, negative = inhibition) at 10uM” value is 8.08%.
To `Cc1cc(NC(=O)C(C)SCC(=O)N(C)CC(=O)Nc2ccc(F)cc2)no1` (stereo not shown) belongs 7.59%.
For `COc1ccc(-c2noc(CSc3ccc(C)cc3)n2)cc1`, the “hERG current change (%, negative = inhibition) at 10uM” value came to 4.15%.
With `COCc1cc(=O)n2[nH]c(C)nc2n1`, the “hERG current change (%, negative = inhibition) at 10uM” value stood at 7.23%.
For `COc1ccc(CCC(=O)OCC(=O)Nc2ccccc2OC(F)F)cc1OC`, the “hERG current change (%, negative = inhibition) at 10uM” value came to 5.94%.
Turning to `O=C(Nc1ccc(OC(F)(F)F)cc1)Oc1ccccc1N1CCOCC1`, the “hERG current change (%, negative = inhibition) at 10uM” value is listed as 7.23%.
Turning to `CC(=O)Nc1ccc(S(=O)(=O)N2CCN(S(=O)(=O)c3ccc(F)c(F)c3F)CC2)cc1`, the “hERG current change (%, negative = inhibition) at 10uM” value is 11.7%.
Regarding `O=C(O)c1cc([N+](=O)[O-])ccc1NCc1ccccc1Cl`, the “hERG current change (%, negative = inhibition) at 10uM” value stood at 22.8%.
As to `CC1CN(C2CCN(C(=O)COc3ccc(Cl)cc3)CC2)CC(C)O1.O=C(O)C(=O)O` (stereo not shown), the “hERG current change (%, negative = inhibition) at 10uM” value is -38%.
On to `CC(=O)c1cn(CC(=O)Nc2ccc(C)cc2C)c2ccccc12`, for which the “hERG current change (%, negative = inhibition) at 10uM” value stood at 1.76%.
For the molecule `Cn1c(NCC(O)c2ccccc2)nc2c1c(=O)n(Cc1ccc(Cl)c(Cl)c1)c(=O)n2C` (stereo not shown), the “hERG current change (%, negative = inhibition) at 10uM” value is -6.39%.
For `Cn1c(SCC(=O)NNC(=O)c2ccccc2)nnc1C(F)(F)F`, the “hERG current change (%, negative = inhibition) at 10uM” value was determined as 13.3%.
`O=C(Nc1ccc(F)cc1)C1CCC(N2C(=O)c3ccccc3C2=O)CC1` (stereo not shown): the “hERG current change (%, negative = inhibition) at 10uM” value came out at 9.03%.
For the molecule `CN(O)C(=O)Nc1ccc([N+](=O)[O-])cc1`, the “hERG current change (%, negative = inhibition) at 10uM” value is given as 10.4%.
`C=CCn1c(O)c(/C(C)=N/N2CCCCCC2)c(=O)[nH]c1=O`: the “hERG current change (%, negative = inhibition) at 10uM” value is -3.3%.
Consider `Cc1ccc(C)c(Nc2nc(-c3ccncc3)nc3ccccc23)c1`, for which the “hERG current change (%, negative = inhibition) at 10uM” value came out at 3.25%.
Take `C1=C(c2c[nH]c3ccccc23)CCNC1`: the “hERG current change (%, negative = inhibition) at 10uM” value is on record as 7.59%.
With `C=CCNc1nc(-c2cccc(OC)c2O)nc2ccccc12`, the “hERG current change (%, negative = inhibition) at 10uM” value stood at 14.5%.
To `Cc1ccc(C)c(N(C)C(=O)COc2cc(=O)n(C)c3ccccc23)c1` belongs -15%; to `COc1ccc(C(O)P(=O)(OC(C)C)c2ccc(N(C)C)cc2)c(OC)c1` (stereo not shown), 8.29%; to `CC(C)Cc1cc(C(=O)O)n[nH]1`, 6.79%.
As to `COc1cc(C2/C(=C(/O)c3ccccc3)C(=O)C(=O)N2c2ccccn2)ccc1O` (stereo not shown), the “hERG current change (%, negative = inhibition) at 10uM” value turned out to be 25.1%.
With `Cc1ccc(/C=N/c2sc3c(c2C#N)CCCCC3)o1`, the “hERG current change (%, negative = inhibition) at 10uM” value is 5.92%.
The same measure for `COc1ccccc1NC(=O)N1CCC(c2nc3cc(C)c(C)cc3[nH]2)CC1`: -53.3%; for `O=C(OCCC1Oc2cccnc2NC1=O)c1ccc(F)cc1` (stereo not shown): 12.6%; for `O=C(Cn1nc(C(F)(F)F)c2c1CCC2)NC1CCCCC1`: -3.87%.
To `COCCN(C(=O)CSc1nnc(C)n1Cc1ccccc1)c1c(N)n(Cc2ccccc2)c(=O)[nH]c1=O` belongs 28.2%; to `O=C(CSc1nnc(-c2ccc(Br)o2)n1Cc1ccccc1)c1ccccc1F`, 3.78%.
Take `CCOC(=O)c1ccc(NC(=O)CCC(=O)NCc2ccco2)cc1`: the “hERG current change (%, negative = inhibition) at 10uM” value is given as 14.2%.
For `O=C(COC(=O)c1ccccc1O)NC(=O)c1ccc(OC(F)F)cc1`, the “hERG current change (%, negative = inhibition) at 10uM” value was found to be 19.3%.
In the case of `C#CCn1c(=NC(=O)c2ccc(Cl)s2)sc2cccc(OC)c21`, the “hERG current change (%, negative = inhibition) at 10uM” value was 19%.
As to `COc1cc(NC(=O)CCN2C(=O)NC3(CCCC3)C2=O)c(OC)cc1Cl`, the “hERG current change (%, negative = inhibition) at 10uM” value came to 5.01%.
As to `COc1ccc(C(=O)NCc2cc(C)nc3ccccc23)cc1`, the “hERG current change (%, negative = inhibition) at 10uM” value is reported as -13.6%.
